# At least one peptide structure holds a part that was inferred or is arguable (an end, a ring closure or a residue). Some compounds share one wording; it may come from a single statement. Peptide text beside a SMILES is read from it.
# Test system: HLA-A24 type molecule, product of the HLA-A*2402 gene
# Experiment: Experiment of binding peptide to HLA-A24 type molecule (C1R-A24 cells, flow cytometry, Kd)
# Design: species or system human
# Settings: −log Kd value (Kd in molar concentration), HCV D90208 strain (Table 1)
row,SMILES,BINDING EXPERIMENT DATA
1,CC[C@H](C)[C@H](N)C(=O)N[C@@H](CC(C)C)C(=O)N1CCC[C@H]1C(=O)N[C@@H](CS)C(=O)N[C@@H](CO)C(=O)N[C@@H](Cc1ccccc1)C(=O)N[C@H](C(=O)N[C@H](C(=O)N[C@@H](CC(C)C)C(=O)O)[C@@H](C)O)[C@@H](C)O [compound 1] (H-ILPCSFTTL-OH),7.6571
2,CC[C@H](C)[C@H](NC(=O)[C@@H]1CCCN1C(=O)[C@H](CC(=O)O)NC(=O)[C@H](Cc1ccccc1)NC(=O)[C@H](CO)NC(=O)[C@H](CC(=O)O)NC(=O)[C@H](CC(C)C)NC(=O)[C@@H](NC(=O)[C@@H](N)C(C)C)[C@@H](C)CC)C(=O)O [compound 2] (H-VILDSFDPI-OH),5.324

# Same assay, conditions: −log Kd value (Kd in molar concentration), HCV pBRT703′X strain (Table 3)
row,SMILES,BINDING EXPERIMENT DATA
1,CC[C@H](C)[C@H](NC(=O)[C@H](CC(N)=O)NC(=O)[C@H](CCC(N)=O)NC(=O)[C@H](Cc1c[nH]cn1)NC(=O)[C@H](CC(C)C)NC(=O)[C@H](Cc1c[nH]cn1)NC(=O)[C@@H](NC(=O)[C@H](CC(C)C)NC(=O)CN)[C@@H](C)CC)C(=O)O [compound 94] (H-GLIHLHQNI-OH),5.856
2,CC[C@H](C)[C@H](N)C(=O)N[C@@H](CC(C)C)C(=O)N[C@@H](CCSC)C(=O)N[C@H](C(=O)N[C@@H](Cc1c[nH]cn1)C(=O)N[C@@H](Cc1ccccc1)C(=O)N[C@@H](Cc1ccccc1)C(=O)N[C@@H](CO)C(=O)N[C@H](C(=O)O)[C@@H](C)CC)[C@@H](C)O [compound 96] (H-ILMTHFFSI-OH),7.895
3,CC(C)C[C@H](NC(=O)[C@H](CC(C)C)NC(=O)[C@@H]1CCCN1C(=O)[C@H](Cc1c[nH]c2ccccc12)NC(=O)[C@@H](NC(=O)CNC(=O)[C@H](Cc1ccc(O)cc1)NC(=O)[C@H](Cc1ccccc1)NC(=O)[C@H](C)N)C(C)C)C(=O)O [compound 98] (H-AFYGVWPLL-OH),7.7344
4,CC[C@H](C)[C@H](N)C(=O)N[C@@H](CC(C)C)C(=O)N[C@@H](CC(C)C)C(=O)NCC(=O)N1CCC[C@H]1C(=O)N[C@@H](C)C(=O)N[C@@H](CC(=O)O)C(=O)N[C@@H](CO)C(=O)N[C@@H](Cc1ccccc1)C(=O)O [compound 100] (H-ILLGPADSF-OH),5.502
5,CSCC[C@H](NC(=O)[C@H](CO)NC(=O)[C@H](Cc1ccc(O)cc1)NC(=O)[C@H](Cc1ccc(O)cc1)NC(=O)[C@H](C)N)C(=O)N[C@H](C(=O)NCC(=O)N[C@@H](CC(N)=O)C(=O)N[C@@H](Cc1c[nH]c2ccccc12)C(=O)O)C(C)C [compound 102] (H-AYYSMVGNW-OH),6.47
6,CC[C@H](C)[C@H](NC(=O)[C@H](Cc1c[nH]c2ccccc12)NC(=O)[C@H](CCC(N)=O)NC(=O)[C@H](Cc1c[nH]cn1)NC(=O)[C@H](CC(C)C)NC(=O)[C@H](CCCNC(=N)N)NC(=O)[C@H](CCCCN)NC(=O)[C@H](CC(C)C)NC(=O)[C@@H](N)CC(C)C)C(=O)O [compound 104] (H-LLKRLHQWI-OH),6.857
7,CC[C@H](C)[C@H](NC(=O)[C@H](Cc1c[nH]c2ccccc12)NC(=O)[C@H](CC(=O)O)NC(=O)[C@H](Cc1c[nH]c2ccccc12)NC(=O)[C@@H](NC(=O)[C@H](CC(=O)O)NC(=O)[C@H](CCCNC(=N)N)NC(=O)[C@H](CC(C)C)NC(=O)[C@@H](N)Cc1c[nH]c2ccccc12)C(C)C)C(=O)O [compound 106] (H-WLRDVWDWI-OH),6.344
8,CC[C@H](C)[C@H](NC(=O)[C@H](CC(C)C)NC(=O)[C@H](C)NC(=O)CNC(=O)[C@@H](NC(=O)[C@H](Cc1c[nH]c2ccccc12)NC(=O)[C@@H](NC(=O)[C@H](Cc1ccc(O)cc1)NC(=O)[C@@H](N)CO)[C@@H](C)O)[C@@H](C)O)C(=O)O [compound 108] (H-SYTWTGALI-OH),7.13
9,CC[C@H](C)[C@H](NC(=O)[C@H](CCC(N)=O)NC(=O)[C@H](Cc1c[nH]c2ccccc12)NC(=O)[C@H](CCC(=O)O)NC(=O)[C@@H](NC(=O)[C@@H](NC(=O)[C@H](CO)NC(=O)[C@H](CC(C)C)NC(=O)[C@@H](N)CC(C)C)[C@@H](C)O)[C@@H](C)O)C(=O)O [compound 109] (H-LLSTTEWQI-OH),8.336
10,CC(C)C[C@H](NC(=O)[C@@H]1CCCN1C(=O)[C@H](CCCCN)NC(=O)[C@H](CS)NC(=O)[C@H](C)NC(=O)[C@@H]1CCCN1C(=O)[C@H](C)NC(=O)[C@H](Cc1ccc(O)cc1)NC(=O)[C@@H](N)CCCNC(=N)N)C(=O)O [compound 110] (H-RYAPACKPL-OH),6.758

# Test system: HLA-A type molecule
# Experiment: Binding experiment, summary statements for HLA-A type molecule (A24 or A2)
# Design: species or system human
# Settings: qualitative statement
row,SMILES,binding to a HLA-A type molecule (in words)
1,CC[C@H](C)[C@H](N)C(=O)N[C@@H](CC(C)C)C(=O)N1CCC[C@H]1C(=O)N[C@@H](CS)C(=O)N[C@@H](CO)C(=O)N[C@@H](Cc1ccccc1)C(=O)N[C@H](C(=O)N[C@H](C(=O)N[C@@H](CC(C)C)C(=O)O)[C@@H](C)O)[C@@H](C)O [compound 1] (H-ILPCSFTTL-OH),experimentally confirmed to bind
2,CC[C@H](C)[C@H](NC(=O)[C@@H]1CCCN1C(=O)[C@H](CC(=O)O)NC(=O)[C@H](Cc1ccccc1)NC(=O)[C@H](CO)NC(=O)[C@H](CC(=O)O)NC(=O)[C@H](CC(C)C)NC(=O)[C@@H](NC(=O)[C@@H](N)C(C)C)[C@@H](C)CC)C(=O)O [compound 2] (H-VILDSFDPI-OH),experimentally confirmed to bind
3,CC[C@H](C)[C@H](NC(=O)[C@H](Cc1c[nH]cn1)NC(=O)[C@H](CO)NC(=O)[C@@H]1CCCN1C(=O)[C@H](CC(=O)O)NC(=O)[C@@H](NC(=O)[C@H](CC(C)C)NC(=O)[C@H](CCSC)NC(=O)[C@@H](N)CO)[C@@H](C)O)C(=O)O [compound 25] (H-SMLTDPSHI-OH),experimentally confirmed to bind
4,CC(C)C[C@H](NC(=O)[C@@H](N)CCCCN)C(=O)N[C@@H](CC(C)C)C(=O)N1CCC[C@H]1C(=O)N[C@@H](CCCNC(=N)N)C(=O)N[C@@H](CC(C)C)C(=O)N1CCC[C@H]1C(=O)NCC(=O)N[C@H](C(=O)O)C(C)C [compound 124] (H-KLLPRLPGV-OH),experimentally confirmed to bind
5,CC[C@H](C)[C@H](NC(=O)[C@H](C)N)C(=O)N[C@@H](CC(C)C)C(=O)N[C@@H](CO)C(=O)N1CCC[C@H]1C(=O)NCC(=O)N[C@@H](C)C(=O)N[C@@H](CC(C)C)C(=O)N[C@H](C(=O)O)C(C)C [compound 131] (H-AILSPGALV-OH),experimentally confirmed to bind
6,CC[C@H](C)[C@H](NC(=O)[C@H](CC(C)C)NC(=O)[C@@H](N)CO)C(=O)N[C@@H](CCCNC(=N)N)C(=O)N[C@H](C(=O)N1CCC[C@H]1C(=O)N[C@@H](Cc1ccc(O)cc1)C(=O)N[C@@H](Cc1ccccc1)C(=O)N[C@H](C(=O)O)C(C)C)C(C)C [compound 132] (H-SLIRVPYFV-OH),experimentally confirmed to bind
7,CC[C@H](C)[C@H](NC(=O)[C@H](Cc1c[nH]c2ccccc12)NC(=O)[C@H](CC(=O)O)NC(=O)[C@H](Cc1c[nH]c2ccccc12)NC(=O)[C@@H](NC(=O)[C@@H](N)CC(=O)O)C(C)C)C(=O)N[C@@H](CS)C(=O)N[C@H](C(=O)N[C@H](C(=O)O)C(C)C)[C@@H](C)O [compound 133] (H-DVWDWICTV-OH),experimentally confirmed to bind
8,CC[C@H](C)[C@H](NC(=O)[C@@H](N)C(C)C)C(=O)N1CCC[C@H]1C(=O)N[C@@H](C)C(=O)N[C@@H](CO)C(=O)NCC(=O)N[C@@H](CC(=O)O)C(=O)N[C@H](C(=O)N[C@H](C(=O)O)C(C)C)C(C)C [compound 134] (H-VIPASGDVV-OH),experimentally confirmed to bind
9,CC(C)C[C@H](NC(=O)[C@H](C)NC(=O)[C@@H](N)CCCNC(=N)N)C(=O)N[C@@H](C)C(=O)N[C@@H](Cc1c[nH]cn1)C(=O)NCC(=O)N[C@H](C(=O)N[C@@H](CCCNC(=N)N)C(=O)N[C@H](C(=O)O)C(C)C)C(C)C [compound 135] (H-RALAHGVRV-OH),experimentally confirmed to bind
10,CC(C)C[C@H](N)C(=O)N[C@@H](CO)C(=O)N[C@@H](CC(=O)O)C(=O)NCC(=O)N[C@@H](CO)C(=O)N[C@@H](Cc1c[nH]c2ccccc12)C(=O)N[C@@H](CO)C(=O)N[C@H](C(=O)N[C@H](C(=O)O)C(C)C)[C@@H](C)O [compound 136] (H-LSDGSWSTV-OH),experimentally confirmed to bind
11,CC[C@H](C)[C@H](NC(=O)[C@H](CCC(=O)O)NC(=O)CNC(=O)[C@@H]1CCCN1C(=O)[C@H](CO)NC(=O)[C@@H](N)Cc1ccc(O)cc1)C(=O)N[C@@H](CC(N)=O)C(=O)N[C@@H](CCCNC(=N)N)C(=O)N[C@H](C(=O)O)C(C)C [compound 141] (H-YSPGEINRV-OH),experimentally confirmed to bind
12,CC(C)C[C@H](NC(=O)[C@H](CC(=O)O)NC(=O)[C@H](CCC(N)=O)NC(=O)[C@H](CC(=O)O)NC(=O)[C@@H](NC(=O)[C@H](CC(N)=O)NC(=O)[C@@H](NC(=O)[C@@H](N)Cc1ccc(O)cc1)[C@@H](C)O)C(C)C)C(=O)N[C@H](C(=O)O)C(C)C [compound 142] (H-YTNVDQDLV-OH),experimentally confirmed to bind
13,CSCC[C@H](NC(=O)[C@@H](N)CS)C(=O)N[C@@H](CO)C(=O)N[C@@H](C)C(=O)N[C@@H](CC(=O)O)C(=O)N[C@@H](CC(C)C)C(=O)N[C@@H](CCC(=O)O)C(=O)N[C@H](C(=O)N[C@H](C(=O)O)C(C)C)C(C)C [compound 146] (H-CMSADLEVV-OH),experimentally confirmed to bind
14,CC[C@H](C)[C@H](NC(=O)[C@H](CC(C)C)NC(=O)[C@H](CO)NC(=O)[C@H](C)NC(=O)[C@H](CCC(N)=O)NC(=O)[C@H](CC(C)C)NC(=O)[C@@H](N)C(C)C)C(=O)N[C@@H](CCCNC(=N)N)C(=O)N[C@H](C(=O)O)C(C)C [compound 149] (H-VLQASLIRV-OH),experimentally confirmed to bind
15,CC(C)[C@H](NC(=O)[C@@H]1CCCN1C(=O)[C@H](C)NC(=O)[C@H](C)NC(=O)[C@H](C)NC(=O)[C@H](CCC(=O)O)NC(=O)[C@H](C)NC(=O)[C@H](CCC(N)=O)NC(=O)[C@@H](N)CCCCN)C(=O)O [compound 150] (H-KQAEAAAPV-OH),experimentally confirmed to bind
16,CC(C)C[C@H](NC(=O)[C@@H](N)C(C)C)C(=O)N[C@@H](CC(=O)O)C(=O)N[C@@H](CC(=O)O)C(=O)N[C@@H](Cc1c[nH]cn1)C(=O)N[C@@H](Cc1ccc(O)cc1)C(=O)N[C@@H](CCCNC(=N)N)C(=O)N[C@@H](CC(=O)O)C(=O)N[C@H](C(=O)O)C(C)C [compound 152] (H-VLDDHYRDV-OH),experimentally confirmed to bind

# Source: patent publication US20110060124A1, “HLA-BINDING PEPTIDES, PRECURSORS THEREOF, DNA FRAGMENTS AND RECOMBINANT VECTORS THAT CODE FOR THOSE PEPTIDE SEQUENCES” (priority 2004, published 2011)
